Among the data in PMC10726135 are binding signal (log2 normalized intensity) values, retold here.

The list shows a part of the results. At the low end of the ranking the order means little. The protein was read in a cell extract, so binding may be indirect.

The test concerns the target T1, HNF4alpha8 (COS-7 nuclear extract) (UniProt P41235-5).
T1 sequence: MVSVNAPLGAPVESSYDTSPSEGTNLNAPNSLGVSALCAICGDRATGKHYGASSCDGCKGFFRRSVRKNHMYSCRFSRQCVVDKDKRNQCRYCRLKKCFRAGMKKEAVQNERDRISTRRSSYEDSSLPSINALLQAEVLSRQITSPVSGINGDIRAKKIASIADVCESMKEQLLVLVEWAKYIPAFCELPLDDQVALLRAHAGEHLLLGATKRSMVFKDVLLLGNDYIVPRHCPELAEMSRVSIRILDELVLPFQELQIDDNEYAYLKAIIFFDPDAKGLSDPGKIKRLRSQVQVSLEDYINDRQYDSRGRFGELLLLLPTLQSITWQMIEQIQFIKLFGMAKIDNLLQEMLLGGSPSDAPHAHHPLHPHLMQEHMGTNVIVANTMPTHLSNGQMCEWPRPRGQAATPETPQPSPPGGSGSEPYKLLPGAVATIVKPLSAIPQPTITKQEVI
The experiment in a line: protein-binding microarray. To be noted: COS-7 nuclear extract on double-stranded Agilent 4x180k PBM; binding buffer, salt, pH and temperature not given; high values mean tight binding; double strand, one strand shown; sequences stand for … in …GCCTAGGGAGATTAGAGTATCGGTCGA
As for GCCTCCCGGAGAGGCCCCGCCCCGTCCCCG, the binding signal (log2 normalized intensity) was 6.24.
As for CCTTTATCGAACCTATTGTTTAATCTTTGA, the figure is 3.24.
The figure for CTATCTGCCTGCAGGAGAGAGCAAAGTCCA is 8.21.
As for AGGGGAGGGTGACCAGATTAATTACCCACA, the figure is -1.2; as for GGGCCTCAAGGGAATCTGCTGTAATAAAGC, -1.36.
For GGGACTTTGCCCTTTTTAATGTTTCATTAA, the binding signal (log2 normalized intensity) came out at 4.68.
As to GATTGACCTGACCCAGGCGAGGGTTGCTGC, the binding signal (log2 normalized intensity) is -0.366.
The figure for ATAGTGACCACCTGGTGGACCCAGCTGGTA is 3.14; for TTGGATCCAGCTCCTGATGTTTGGTCTTAT it is 1.37.
As for ATAAACACAATTCTTTGGTACTTTGAGCCA, the binding signal (log2 normalized intensity) was found to be 2.82.
As for CTCCTCTCTGTAGTCCTCAGCAATAACTTA, the figure is -0.755; as for GTCTTAGTGCATTCCTTCCCAAGTGCTAGC, 0.303; as for CCTTAGGATGTGGGGTATCAGGTGGTGATG, 1.67.
As for CAGGGCTAAAGTCAGGGGCAGGTGGAGGTG, the figure is -1.05.
The figure for ACTTGGACCAGCTTTTGGAAGGACTTCGAA is 0.929; for TATAAAAGGCTGTCACACTGGCCTTTGCCC it is 5.84; for TCCACTGCATCAGTGCTGACCTACCTGACC it is 2.98.
As for TCATTCCTAGCCCCACCAAACTGACAGGTT, the binding signal (log2 normalized intensity) worked out at 3.39.
As for ATGAGACATTGTGTCAATTCCAAAGTTCAA, the figure is 5.43.
The figure for GTGAAACATCCCACTCAAAGGTCAGGGCTA is 2.41.
The figure for AACTAGCAACTTGGACCTTGATAGGAGTTA is 3.62; for TCCAGCTGCCAGGGAGACAAAGTGTCACAA it is -1.18; for TGCCGACCTCCTGACTAAAGTTCATTGCTT it is 2.94.
For GGCATCAGCCCCAATGGCTAAGGTCACCAT, the binding signal (log2 normalized intensity) was 3.1.
The figure for CCCTTGCTCTGTTTTCTGACGCAACAGAAA is -0.887.
For the sequence GGGTCAATTAGCTTGAGCGAGACAGCGGGT, the binding signal (log2 normalized intensity) is -1.01.
The figure for TTATCTCTGTAAAAGCCAGCATTTCTGTGG is 0.912.
The figure for GAGGCCTAGGCAGTCCACAGACAAAGGCCC is -1.25; for CCCCAGTTCCCTGGGTCGCCAAGCCGGAGG it is -1.22.
As for TAAACCAACTATAGAAAGCCTTTGAACTGT, the figure is 2.81; as for ATGAGGATACTGATAACATGAGGTAGAGGG, -1.37.
As to AGATGCCGTCGGCACACACGCATGGCCGGC, the binding signal (log2 normalized intensity) was -1.36.
As for TCCTCTTCAACTGATTCTTGCTTCGCTCTC, the figure is -0.0208.
As for TTAAATCCTATCCTAGGGTTAAAGTCTACA, the figure is 5.12; as for CTTAGACAACACACCACCTGCTACTCCCTT, -1.35.
The figure for GAACCGTTAGCAACCGGAAGTGGCTAGAGG is -1.2; for CCACCAGCTGCTTCGGCCAGCACAGGAGGC it is -1.35; for AGGTCAAGCAATGCTGGGGACCTTTGGCCT it is 6.8.
In the case of TCTACCTGACCTCCCAAAATTCTTCACATA, the binding signal (log2 normalized intensity) turned out to be 0.286.
The figure for ACAATTCTTCCTTCATCTGGAGACAAATGC is 1.16; for TGTAATAAGGAGTTGTGTGATAAGGAGGGC it is 0.467; for GGGGGGACGCGCTTGGGCGACGGACGCGCC it is -1.35.
CTGCAGCGCCACATTCTGAGCCAGCACTTC: the binding signal (log2 normalized intensity) is -1.28.
Take TAACTTACAGTGCACTTTGACCGCTCATTT: the binding signal (log2 normalized intensity) is 6.77.
As for AGGAAACAAGGGTACCAACAGGTCCAAGGT, the figure is 1.52; as for GCCAAGGAAGCGATGGGCTGGCCCTGAGCC, -1.31.
As for CCTAAACAGTTACCGAGAGGTAACTCCCCC, the figure is 3.13.
Consider ACACATGCCCCTTCCCTCCCTGCAATGGCC, for which the binding signal (log2 normalized intensity) was found to be 3.85.
The figure for TGCAATTTGTTCTTTCTCCAACTGCTCCTC is 0.625.
For AATTCTCATGGAGGACTTTGGCCTTTTGTG, the binding signal (log2 normalized intensity) turned out to be 6.71.
The figure for AACTTTGGACTTTTATGTTAAGATCAAACA is 2.25.
The figure for AGTCACTATCACCTCTCCCACCTGAATTAT is 2.4; for CATTATAAGTTGTCCTAGGAAGCAACAGAC it is 0.63.
Take ACAGCTAGCAGGTGACAAATCCAGGATCAA: the binding signal (log2 normalized intensity) was -1.23.
For the sequence GGAGGGCGGGGAGTCTCCTGGGTAATCACC, the binding signal (log2 normalized intensity) is -1.12.
As for AGGTAAAGGCATGCTTGGCATCCCTGTGGT, the figure is -1.06; as for TCAGGCACAGCTCGACCTTTGACCTTCGGC, 10.9.
As for CCATGCCATGCATTTCAGAATTTTGCTCTG, the figure is -0.387; as for GAACCAAGATATGCTAACATCCCTTGCAGA, -1.31.
Turning to TACTTACAGACTTTCAACATTATGAAATCT, the binding signal (log2 normalized intensity) is -1.22.
The figure for ACAAAAGAAAATGTGCCCTTTGGACAGAAA is 5.7; for GATAATATAGTCACTATACAACTAGGCTAC it is -1.39; for GCCACCCTCTGGCCACCAGTTATTCATGTC it is 0.887.
Take TCAGTTTTGCCATCAGCTCCCTCCCCTGGT: the binding signal (log2 normalized intensity) came out at 3.13.
As for AATAGCCCCAAATTCCTTTCAAACTGTATT, the figure is 1.37; as for CATTTGCCATTTCTGAGCAAATATTTGGGG, 1.53; as for CAGTTAAGCAGGTTCACATTTTTGTCATCT, 1.29.
As for GGCAGACAGGTTGGAGACGCAGAGAAGCAC, the figure is -1.26.
As for AGCTGACAGATGGTGACCAGACTACCTCTT, the figure is -0.762.
As for TCATCGCACCGGCAGGGGAGAACTTCCTCC, the binding signal (log2 normalized intensity) was -1.22.
As for TTCCTCCCTCCCTCTTCCCTCATATAATTT, the binding signal (log2 normalized intensity) was 2.56.
As for ATGTTGTCCCTGCCCTTTGTCCAGGGTGAG, the figure is 3.45; as for CGCCCCCAACGGGCCACGCCCTGCACCCTA, 4.07; as for TTTCTAAGGACACAACAGAATGTGACTGCC, -1.01.
As to GGGCCTCTGAGATAAGGGTTCAAACTCAGT, the binding signal (log2 normalized intensity) is 2.18.
The figure for CATCCAAGGACTTTGTAATCATATTGATAA is 2.43; for GTGCAGTTTTTCTGCCGAAGATATTTAACC it is 0.707.
Regarding AATTCCAAAGTTCAAGTAGAGCTTCACCTC, the binding signal (log2 normalized intensity) is 3.84.
As for GAGGGCTCTGTCTGCTGGGCCTTCAGCTTG, the figure is -1.29; as for GGGCAAATCTGAGGTCAAAGCTGTCAGAGA, -0.316; as for GCTCATCCATTTTCCTCTGAAAATCATTCA, -0.4.
As to TTTGTCTTAGGGGGTCTGGTTTCTAGGTAG, the binding signal (log2 normalized intensity) turned out to be 0.743.
As for ATAATTAGGTCTTTTGGTGAGTCTTTGCCC, the figure is 2.27.
As for CCGGGGCCTGGGCGCGCCTGCCCTTCGCTC, the figure is 2.98; as for GGACACAGTTCAGGCCATCACACTCCTACC, -1.23; as for TACCAGCTGGGGTTTTACCAGGCACGCATG, -1.27.
Take AAATCTGATCTTTCCTCTAAGTGCCCAAAT: the binding signal (log2 normalized intensity) came out at 1.12.
The figure for GCTCCCATCCCCCCAAAGGCTCTCTGTTGA is 4.12; for CTCATTCCTATTCGGTGCTGACCTTTGTTC it is 8.62; for CTCCTCTGCCTCCAGCTGTTGGTGACTGAC it is -0.649.
The figure for GTGTGCTCGAGGTGGACTTTCCCCCCTCAC is 6.69; for AGATGACCTTTGCCCTTGACTTTTTGTGGG it is 7.72.
The figure for TGTGGTAATAAGTTGGTGGACGCTGGGGAA is 0.488.
